# Assay results: the supplement of paper PMC7335073
# The full ranking holds about 4,100 sequences; the median of “relative CpG methylation activity (normalised to average over all NNNCGNNN flanks)” is about 0.87, and the highest 2% start at about 2.4. The list shows a part of the results.
# Target: DNMT3A catalytic domain (mouse) (UniProt O88508)
# Assay: relative CpG methylation activity (normalised to average over all NNNCGNNN flanks) (relative (1 = mean)); higher = more methylation of the central CpG
# Conditions: system: in vitro, murine catalytic domain; CpG state: hemimethylated substrate pool; residues: 608-908
# Experimental: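 Deep enzymology: a pool of dsDNA substrates with a central CpG flanked by 10 random nucleotides on each side was methylated by the murine DNMT3A or DNMT3B catalytic domain (0.8 mM SAM, 37 °C, 60 min). Methylation was then read out by hairpin ligation, bisulfite conversion and NGS. Values are the average methylation of each NNNCGNNN context (±3 flanks; the outer flanks are random and averaged over), normalised to the overall mean, so 1 = average activity.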
row,Sequence,relative CpG methylation activity
1,CGGCGTTG,0.39
2,TTACGCCC,2.64
3,GAACGCGC,0.824
4,CACCGATC,1.28
5,GAGCGTTA,0.741
6,CTACGGAC,2.28
7,AGGCGAGG,0.379
8,ACCCGAGC,1.82
9,CGTCGTCG,0.989
10,TGCCGATT,0.424
11,TTCCGTCT,2.58
12,ATTCGAAT,0.851
13,TCTCGGAT,0.816
14,TATCGGCT,0.701
15,GGACGTCT,1.1
16,ATACGGGG,1.08
17,GTACGCTT,2.66
18,AGTCGGAG,0.137
19,ACACGTCA,2.19
20,AGACGGCG,0.744
21,AGGCGTGG,0.0781
22,TAACGTTT,0.714
23,CCACGCGA,1.12
24,GGTCGTCG,0.968
25,TAACGTTC,1.06

row,Sequence,relative CpG methylation activity
1,TTACGCAC,2.32
2,GCTCGCGT,0.862
3,GTCCGGTA,1.67
4,TGCCGTTA,0.5
5,GCGCGCAC,1.23
6,GTTCGTGC,0.783
7,AATCGCAT,0.525
8,CCGCGCCA,1.37
9,GCGCGTTC,1.27
10,AATCGCTA,0.779
11,GAACGTTG,0.245
12,AGGCGGGT,0.616
13,TGTCGTTC,0.867
14,AAACGAGA,0.431
15,ATTCGTTA,1.14
16,GCCCGGTA,1.05
17,TGGCGTGA,0.105
18,GGACGGTG,0.111
19,CAACGTCA,1.43
20,GACCGAAT,0.968
21,TCGCGTTC,1.24
22,AACCGCGT,0.604
23,GGGCGACG,0.851
24,GTTCGTTT,1.18
25,ACGCGCAA,0.908

row,Sequence,relative CpG methylation activity
1,ACACGACG,1.26
2,CGACGTAT,0.567
3,TCTCGAAG,0.588
4,CTACGGTA,1.45
5,CGGCGAAC,1.06
6,AGCCGGGA,0.357
7,CAACGTCT,0.833
8,CTACGAAC,2.15
9,TGACGGGA,0.551
10,GGACGAGA,0.605
11,ATACGCTG,2.12
12,ATTCGTAA,1.24
13,ATGCGACT,1.09
14,TCCCGCTC,1.82
15,GCACGACA,1.44
16,TTCCGGGG,0.556
17,AAACGCGT,0.522
18,TCCCGAGG,0.664
19,GAACGTTT,0.656
20,GATCGGCT,0.647
21,GGCCGTGA,0.44
22,TTACGGGC,2.31
23,ACTCGGAC,1.07
24,GTGCGTAG,0.947
25,ACTCGAGT,0.929

row,Sequence,relative CpG methylation activity
1,AGACGGTA,0.503
2,AAACGATG,0.235
3,ACACGGTA,1.27
4,CCACGCAA,1.52
5,ACGCGCAC,1.04
6,ACTCGCAC,1.39
7,TGTCGCGT,0.388
8,GCGCGTGC,0.431
9,ATTCGTCA,1.57
10,CGGCGATC,0.759
11,GTTCGTAA,1.5
12,TGGCGACA,0.699
13,ATCCGGGG,0.781
14,CCTCGGTT,0.723
15,CCACGGAT,1.32
16,TTCCGATA,2.01
17,AACCGGGA,0.529
18,CTGCGCTC,2.22
19,ACGCGTCT,1.25
20,GCACGGGC,1.47
21,AACCGTTG,0.662
22,CAACGACG,0.491
23,GGTCGACT,0.573
24,CAACGCCT,1.45
25,GCACGGTG,0.96

row,Sequence,relative CpG methylation activity
1,AGGCGAAT,0.772
2,TTACGGAT,1.72
3,TACCGTGC,0.457
4,CAGCGGAC,0.682
5,CGACGCAG,0.425
6,GCGCGCAG,0.591
7,TCCCGTAA,1.43
8,TGACGATG,0.323
9,TCTCGACA,0.767
10,GCACGAGT,1.2
11,ATGCGAAA,1.17
12,AGCCGCGC,0.879
13,GCTCGGGT,0.565
14,CGACGCCT,1.29
15,GTCCGTAG,0.889
16,AATCGACA,0.409
17,ACTCGTCG,1.41
18,CGCCGATT,0.629
19,TTGCGCGC,1.55
20,CTGCGTTA,1.2
21,CTTCGGCC,1.36
22,TTCCGCGA,1.52
23,CTCCGGAA,1.38
24,GGCCGCTT,1.75
25,CACCGGCC,1.28

row,Sequence,relative CpG methylation activity
1,AATCGGCA,0.377
2,TCTCGACG,0.648
3,AAACGGTC,0.701
4,GGCCGAAA,0.863
5,GGCCGCAC,0.912
6,GGGCGTGG,0.025
7,TCTCGTTT,0.688
8,GTGCGTTG,0.846
9,AACCGAAT,0.859
10,CTGCGAGC,1.61
11,GAACGCGT,0.528
12,GGCCGGTA,0.722
13,TGTCGCAT,0.692
14,GCACGTCT,1.34
15,CAACGAAC,0.954
16,GTGCGTAC,1.4
17,TTTCGGAA,1.03
18,CTGCGGAC,1.53
19,CCTCGTCG,1.57
20,GTGCGCAC,1.56
21,GGTCGCAT,0.672
22,TTCCGTAC,1.75
23,CTGCGCTT,2.3
24,GCACGCCT,2.25
25,CAACGTCG,1.23

row,Sequence,relative CpG methylation activity
1,ACGCGGTT,0.854
2,CGCCGGCA,0.789
3,TAGCGATT,0.606
4,ATTCGCGA,0.574
5,GACCGCAG,0.547
6,GTGCGCAT,1.41
7,GGGCGGTG,0.385
8,CTACGTGC,1.34
9,TCACGCCC,2.31
10,GGCCGTCT,1.4
11,GTCCGTGA,0.951
12,GGTCGGTA,0.461
13,CGTCGCGA,0.595
14,GCGCGTCT,1.14
15,GCGCGGAG,0.455
16,TATCGGAA,0.431
17,TCTCGCGC,1.27
18,TCTCGCGT,1.42
19,TTCCGAAA,2.05
20,AGACGGGT,0.529
21,GCTCGAGT,0.789
22,TTTCGACG,0.935
